The values that follow come from PMC7819943, “Rice protein-binding microarrays: a tool to detect cis-acting elements near promoter regions in rice”.

This is one part of the list.

The target in the test is T1, OsWOX13 (Oryza sativa, UniProt Q5QMM3 1-267).
T1 sequence: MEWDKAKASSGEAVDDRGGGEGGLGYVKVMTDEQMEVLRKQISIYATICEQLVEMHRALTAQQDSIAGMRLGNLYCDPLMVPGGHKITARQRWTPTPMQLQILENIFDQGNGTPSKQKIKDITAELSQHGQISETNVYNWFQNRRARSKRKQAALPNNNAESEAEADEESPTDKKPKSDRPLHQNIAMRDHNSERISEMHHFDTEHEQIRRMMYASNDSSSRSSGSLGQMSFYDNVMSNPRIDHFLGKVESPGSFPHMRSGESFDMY
Kind of test: protein-binding microarray (RPBM); PBS, 2% BSA, 51.3 ng/ul salmon testes DNA, 50 uM zinc acetate, 200 nM TF, 25 C, 1 h; high values mean tight binding. The settings on record: protein: recombinant; tags: N-terminal polyhistidine and DsRed monomer fusion (pET32a); label: CyDye5-dUTP incorporated in the synthesized complementary strand; 3' TTTTT single-stranded linker to array surface; dsDNA, one strand shown. The method, boiled down: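 Using Ni–NTA, transcription factors fused N-terminally to polyhistidine and DsRed were purified after expression in E. coli BL21-CodonPlus. These were incubated at 200 nM with a blocked, double-stranded custom Agilent array for 1 h at 25 °C in a buffer containing 50 µM zinc acetate, and the array was washed. The binding signal is per-feature fluorescence intensity (arbitrary units) on an Axon 4000B scanner.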
For “CCATGCCTTGCCGATTTAATTAGCGGTTAATTATCCTCATCGGAGTCACCTAGTGCAG”, the binding signal was 11800 fluorescence intensity (a.u.).

In the case of “GTGTAATTATCTTCTCTTTACATATACTGCATACGTCAAGCGGAGTCACCTAGTGCAG”, the binding signal is 32700 fluorescence intensity (a.u.).

For “TTGTTTACTTGATTAACATGATAAATTAAGTTTGAAGAAACGGAGTCACCTAGTGCAG”, the binding signal is 13100 fluorescence intensity (a.u.).

In the case of “TTGACCAATTAATTATAATCAAAGCAAAACGTGAGAGTGCCGGAGTCACCTAGTGCAG”, the binding signal was 29800 fluorescence intensity (a.u.).

As to “TGCCGCTAATCAGTGACGCAGAGTCACAAATGAACACCATCGGAGTCACCTAGTGCAG”, the binding signal is 8580 fluorescence intensity (a.u.).

“AAGATAAAATGTATGATTGTATGCCTAATTTGAATAGTGGCGGAGTCACCTAGTGCAG”: the binding signal was 15900 fluorescence intensity (a.u.).

For “CAAAATCTGGAAATTACAGATTTCAGTTAACCTACTTTGCCGGAGTCACCTAGTGCAG”, the binding signal was 5910 fluorescence intensity (a.u.).

“GAGCAGATGATTAGTGAAGGTGTAACCCCTAACATCGTTACGGAGTCACCTAGTGCAG”: the binding signal was 12900 fluorescence intensity (a.u.).

In the case of “CTTCAATAATTAATTTATATTGTACTAATATGTTTGTAAACGGAGTCACCTAGTGCAG”, the binding signal is 17900 fluorescence intensity (a.u.).

For the sequence “AATTTACAAATGTAATTTTAGTTATATATGACTGTAATTTCGGAGTCACCTAGTGCAG”, the binding signal was 4150 fluorescence intensity (a.u.).

On to “TGCATAGCCATCAATTTACATTATCTTAAATCTCATATGGCGGAGTCACCTAGTGCAG”, for which the binding signal is 4740 fluorescence intensity (a.u.).

Turning to “TAATTAATTAAGCCTATCACCGAAGCAAATTAGAATTTTACGGAGTCACCTAGTGCAG”, the binding signal is 18600 fluorescence intensity (a.u.).

With “CACATGATTGTGTTTTCAACTCTGAACCTTTTCTTGTGTTCGGAGTCACCTAGTGCAG”, the binding signal was 35000 fluorescence intensity (a.u.).

Take “TCGTTGATTTGGTGTCCACGGCGAGTCGGAAGCGACGGCGCGGAGTCACCTAGTGCAG”: the binding signal was 13500 fluorescence intensity (a.u.).

With “TCAAATTAACTGGCACGGTCATACACTTAAAGGCAAGCTTCGGAGTCACCTAGTGCAG”, the binding signal was 28500 fluorescence intensity (a.u.).

“GTCATTAACGTCAAATCATTCTCTGCTAATAATGCAAGGCCGGAGTCACCTAGTGCAG”: the binding signal is 6720 fluorescence intensity (a.u.).

Take “GATTAAATTTTGATATGAGCGGTTCTAATCCATGAGACAACGGAGTCACCTAGTGCAG”: the binding signal is 6140 fluorescence intensity (a.u.).

On to “ATGATTGGAGAGGAGATGGGCAAGAAAGTGGCGAGACCAACGGAGTCACCTAGTGCAG”, for which the binding signal is 21600 fluorescence intensity (a.u.).

For “TACCATTAAATTTATTGCAATTAAATCTTCAAAATAAGACCGGAGTCACCTAGTGCAG”, the binding signal was 8580 fluorescence intensity (a.u.).

As for “GGCTAATAGTAGGTTGATTAGTCCTTATTGTGCTTGCCCTCGGAGTCACCTAGTGCAG”, the binding signal was 28500 fluorescence intensity (a.u.).

For “ATTAGATTAAACGAGGCGAGAGAGCGTGTCCCACACCGGACGGAGTCACCTAGTGCAG”, the binding signal was 4110 fluorescence intensity (a.u.).

For “AAAACAGAAAATAGCCAGTCAACCAAACAGTTGTCTTGACCGGAGTCACCTAGTGCAG”, the binding signal was 6230 fluorescence intensity (a.u.).

Consider “ACTGTAATTATACTGGATCGAGGAAGAACATTGATAATCACGGAGTCACCTAGTGCAG”, for which the binding signal is 10200 fluorescence intensity (a.u.).

As for “GATTGCATCATCGCCCTAAATTGAAACAGCGATGATATGACGGAGTCACCTAGTGCAG”, the binding signal is 3620 fluorescence intensity (a.u.).

Turning to “GCTAATCATGGATTAATTAGGCTCATTAGATTCGTCTCGTCGGAGTCACCTAGTGCAG”, the binding signal was 41100 fluorescence intensity (a.u.).

Turning to “CGTTAACGTTAAATGGTATTTTCGCAGACCTTGATAGTGACGGAGTCACCTAGTGCAG”, the binding signal is 7400 fluorescence intensity (a.u.).

In the case of “CCAATAATTTTGAGACTCACAATGCGAAGGTTGTCCAAGCCGGAGTCACCTAGTGCAG”, the binding signal is 7230 fluorescence intensity (a.u.).

“ATTGACTATATTTATCATTTAAACTATTCAATGTCAATATCGGAGTCACCTAGTGCAG”: the binding signal is 6180 fluorescence intensity (a.u.).

Take “ACGTTGATCAATTAATTAATTTAAGTAAGATCGATCAAGCCGGAGTCACCTAGTGCAG”: the binding signal is 48500 fluorescence intensity (a.u.).

Take “ACCTAATTAGATCAGCACCATTTCACCACCCCGGATCGACCGGAGTCACCTAGTGCAG”: the binding signal was 25600 fluorescence intensity (a.u.).

Turning to “ACAAATTAATAAAATATTACGGTAACACAAAACCAAGGGGCGGAGTCACCTAGTGCAG”, the binding signal is 12900 fluorescence intensity (a.u.).

For the sequence “TTGATCTGATTAATTAACTGATCAGACGGGTCGACGGGACCGGAGTCACCTAGTGCAG”, the binding signal is 55700 fluorescence intensity (a.u.).

“ATTAGATTACCTGATAGAGGCATTATTTTCCAATGCTATTCGGAGTCACCTAGTGCAG”: the binding signal was 16700 fluorescence intensity (a.u.).

With “TTTTAATTTGGTAGGATCGAAACATGGTAAAATAATGGATCGGAGTCACCTAGTGCAG”, the binding signal was 6590 fluorescence intensity (a.u.).

For “GAAACGTGATTCAAATGATTATTCAGGTACAATAATCTTACGGAGTCACCTAGTGCAG”, the binding signal was 8070 fluorescence intensity (a.u.).

Consider “ATCACATAAATTTAGAATACAATCAAAATTACCATCTCTCCGGAGTCACCTAGTGCAG”, for which the binding signal was 5110 fluorescence intensity (a.u.).

Turning to “CCGCCGTCGCGTGGGAGGGGAGGGGAGGGGATGGAAGGAGCGGAGTCACCTAGTGCAG”, the binding signal is 3930 fluorescence intensity (a.u.).

As for “AATTAATTAGTTGCATGAAATCTTGACATCTGCAGGTTGTCGGAGTCACCTAGTGCAG”, the binding signal was 43100 fluorescence intensity (a.u.).

With “ATTAAATTAAGCATCAGTGGACAGTGTATGCGAGGCCGTACGGAGTCACCTAGTGCAG”, the binding signal was 11100 fluorescence intensity (a.u.).

For “CATTAGATTTACATTTTGGTTTTGGATCGATTAATTCATGCGGAGTCACCTAGTGCAG”, the binding signal is 10900 fluorescence intensity (a.u.).

Turning to “ATAATGGATTGCTTGTTCCAGCACTGAATGTGCTGCCAAGCGGAGTCACCTAGTGCAG”, the binding signal is 6550 fluorescence intensity (a.u.).

Take “CCTGATTGGTTGTATTGCTTGAAGTAGACTATTGAGATTGCGGAGTCACCTAGTGCAG”: the binding signal was 60200 fluorescence intensity (a.u.).
